The supplement of paper PMC7826260
The other results are listed elsewhere or left out. One pool of 16,384 single-stranded DNAs met each Rep nickase domain in vitro at 3 µM enzyme and 37 °C for 1 h; the strands have 90 letters, of which the middle is given. Values are log2 of uncut reads against the no-enzyme pool; strong cutting gives strongly negative numbers. There is no active / inactive call. The scaling is to total reads, so uncut sequences can rise above 0 when many others are cut.

What was measured:
Assay in all cases: uncleaved DNA left, log2 of reads against the no-enzyme library (log2 ratio); higher = less cleavage (more negative = more Rep cleavage of the k-mer); sequences stand for … in CTCGTCCG…ACCGGAGA
[1] = system: T1, Rep nickase domain of Muscovy duck circovirus
T1 sequence (protein, residues 1-111, tag omitted): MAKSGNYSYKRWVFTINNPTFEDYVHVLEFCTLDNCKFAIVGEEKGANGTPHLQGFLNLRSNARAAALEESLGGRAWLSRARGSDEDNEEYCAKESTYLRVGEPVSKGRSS
Procedure: (§1)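 A pool of 90-nt single-stranded DNAs with seven random bases just before the constant AC of the nick site (name = the seven bases) was cut by 3 µM recombinant His6-SUMO-tagged Rep nickase domain (300 nM DNA, 50 mM HEPES pH 8.0, 50 mM NaCl, 1 mM MnCl2, 1 h, 37 °C, three replicates). Uncut DNA was amplified and sequenced.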

[2] = system: T2, Rep nickase domain of banana bunchy top virus
T2 sequence (protein, residues 1-94, tag omitted): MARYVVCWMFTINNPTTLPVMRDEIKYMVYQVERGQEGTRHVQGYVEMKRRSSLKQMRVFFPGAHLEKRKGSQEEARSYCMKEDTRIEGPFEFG
Procedure: as §1

[3] = system: T3, Rep nickase domain of cabbage leaf curl virus
T3 sequence (protein, residues 1-116, tag omitted): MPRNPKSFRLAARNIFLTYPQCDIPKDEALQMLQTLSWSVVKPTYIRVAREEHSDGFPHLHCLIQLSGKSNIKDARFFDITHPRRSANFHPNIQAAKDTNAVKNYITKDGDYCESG
Procedure: as §1

[4] = system: T4, Rep nickase domain of chickpea chlorotic dwarf virus
T4 sequence (protein, residues 1-124, tag omitted): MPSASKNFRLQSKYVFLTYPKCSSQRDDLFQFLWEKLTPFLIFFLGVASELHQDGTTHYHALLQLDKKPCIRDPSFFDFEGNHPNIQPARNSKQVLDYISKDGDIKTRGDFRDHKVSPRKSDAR
Procedure: as §1

[5] = system: T5, Rep nickase domain of faba bean necrotic yellows virus
T5 sequence (protein, residues 1-98, tag omitted): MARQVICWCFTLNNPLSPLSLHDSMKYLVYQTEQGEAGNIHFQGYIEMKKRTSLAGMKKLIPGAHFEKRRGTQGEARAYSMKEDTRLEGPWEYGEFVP
Procedure: as §1

[6] = system: T6, Rep nickase domain of maize striate mosaic virus
T6 sequence (protein, residues 1-117, tag omitted): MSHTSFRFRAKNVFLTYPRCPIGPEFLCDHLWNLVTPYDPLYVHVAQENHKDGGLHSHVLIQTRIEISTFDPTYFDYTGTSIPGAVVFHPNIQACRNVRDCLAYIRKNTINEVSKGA
Procedure: as §1

[7] = system: T7, Rep nickase domain of porcine circovirus 2
T7 sequence (protein, residues 2-116, tag omitted): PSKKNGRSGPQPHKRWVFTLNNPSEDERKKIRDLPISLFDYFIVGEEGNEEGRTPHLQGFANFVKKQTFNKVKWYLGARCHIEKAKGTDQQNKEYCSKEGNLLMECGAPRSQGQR
Procedure: as §1

[8] = system: T8, Rep nickase domain of tomato yellow leaf curl virus
T8 sequence (protein, residues 1-136, tag omitted): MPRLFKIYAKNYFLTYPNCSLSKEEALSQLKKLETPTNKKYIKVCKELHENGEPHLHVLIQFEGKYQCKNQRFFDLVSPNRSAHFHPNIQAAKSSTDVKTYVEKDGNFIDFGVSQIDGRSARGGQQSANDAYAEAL
Procedure: as §1

[9] = system: T9, Rep nickase domain of wheat dwarf virus
T9 sequence (protein, residues 1-137, tag omitted): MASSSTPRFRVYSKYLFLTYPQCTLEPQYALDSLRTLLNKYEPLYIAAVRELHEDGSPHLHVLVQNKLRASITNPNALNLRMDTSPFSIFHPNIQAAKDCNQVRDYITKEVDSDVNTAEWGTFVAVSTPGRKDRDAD
Procedure: as §1

| Sequence | uncleaved DNA left (log2) [1] | uncleaved DNA left (log2) [2] | uncleaved DNA left (log2) [3] | uncleaved DNA left (log2) [4] | uncleaved DNA left (log2) [5] | uncleaved DNA left (log2) [6] | uncleaved DNA left (log2) [7] | uncleaved DNA left (log2) [8] | uncleaved DNA left (log2) [9] |
| --- | --- | --- | --- | --- | --- | --- | --- | --- | --- |
| AAGGGCC | 0.106 | 0.152 | 0.175 | 0.563 | 0.0811 | 0.322 | 0.265 | 0.0675 | 0.0561 |
| TACCCGG | -0.00926 | 0.135 | 0.469 | 1.28 | -0.0831 | 1.64 | -0.00556 | -0.0111 | 0.0834 |
| TCTGAAG | 0.0559 | -0.124 | -0.858 | -0.518 | 0.0499 | -1 | 0.156 | 0.01 | -0.122 |
| AAGGCTA | 0.0277 | -0.00385 | 0.021 | 0.136 | 0.0182 | 0.799 | 0.068 | -0.122 | 0.000518 |
| AGCGAAG | -0.0453 | 0.0792 | -0.0355 | 0.383 | 0.077 | 1.15 | 0.0407 | 0.0631 | 0.0441 |
| GACGTTA | 0.176 | 0.0909 | 0.364 | 0.224 | 0.172 | 1.13 | 0.094 | 0.00677 | 0.0648 |
| TATTCAC | -1.07 | -0.294 | 0.0974 | -0.356 | -0.0852 | -0.471 | -0.554 | -0.0392 | -0.0447 |
| ACTATGC | -0.0652 | -0.0283 | -0.708 | -0.561 | -0.0844 | -1.18 | 0.0527 | -0.0178 | -0.138 |
| GCGCTGG | 0.217 | 0.0658 | 0.0192 | 0.351 | 0.0181 | 0.67 | 0.115 | -0.0339 | -0.0255 |
| CACTTAG | 0.0229 | 0.0112 | -0.797 | -0.444 | 0.119 | -1.17 | 0.209 | 0.114 | 0.0306 |
| TGAAGTG | 0.0652 | -0.119 | -0.542 | -0.671 | -0.0979 | -0.985 | 0.116 | -0.141 | -0.152 |
| GGCGAGA | 0.12 | 0.136 | 0.819 | 1.9 | 0.141 | 2.19 | 0.239 | 0.199 | 0.185 |
| GCGCAGA | 0.109 | 0.0807 | 0.0298 | 0.557 | 0.106 | 0.353 | 0.254 | 0.0525 | 0.0885 |
| CCCGAGA | 0.172 | 0.095 | 1.2 | 1.83 | -0.0407 | 2.25 | 0.239 | 0.184 | 0.337 |
| GCCATTG | -0.131 | -0.101 | -0.556 | -0.26 | 0.0316 | -0.833 | 0.0662 | 0.0442 | -0.126 |
